# The campaign covered roughly 410,000 compounds. About 7,200 (1.8%) were called active. Inconclusive means that the source gave no clear call. Such entries were picked first, then a sample of the others. The call rests on the fitted dose curve; in most records, active means well fitted activation curve with a large enough effect; inconclusive means small, poorly fitted or top-dose-only effect, or another doubt; inactive means no such curve, though single readings can be large or run the other way. Potencies of inconclusive entries are left out as doubtful fits.
# Assay: qHTS of TDP-43 Inhibitors; further: nearly all actives have a fitted effect of over 50% in size; on growth rescue (activation): % of control where 0% means no effect
# Settings: TDP-43 expressing yeast growth rescue, BacTiter-Glo, 24 h; growth rescue (activation): at 46.1 µM (top of the series) unless noted
# Method in brief: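 Galactose-induced TDP-43 yeast, OD600=0.02, compound pinned; 24 hr, 30 deg C; BacTiter-Glo luminescence for growth. Inhibitors of TDP-43 toxicity read as activators.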
# Potency means the concentration at half of the fitted maximal effect; tags describe the fitted curve by direction and shape.
SMILES,Potency,growth rescue (activation)
COc1ccc(Oc2cn[nH]c2-c2ccc(OC)cc2O)cc1,"inconclusive [activator, single point]",–
O=C(/C=C/c1ccccn1)c1cc(Cl)cc(Cl)c1O,"inconclusive [activator, single point]",–
O=C(ON=C1CCN(S(=O)(=O)c2ccccc2)CC1)c1cccc(Cl)c1,"inconclusive [activator, single point]",–
O=S1(=O)CC(O)C(N=Nc2c(O)n(Cc3ccccc3)c3ccccc23)C1 (stereo unspecified),"inconclusive [activator, single point]",–
Cn1nc(CC#N)c2c(=N)n(N)cnc21,"inconclusive [activator, partial curve]",–
Cc1nc2c(Br)c(C)nn2c2c1CCC2,active: 11.2 µM,–
CC(CCc1ccccc1)NS(=O)(=O)c1ccccc1Cl (stereo unspecified),"inconclusive [activator, partial curve]",–
CCCNC(=O)C1CCC(Cn2c(=O)c3sccc3n(CC(=O)N3CCCC(C)C3)c2=O)CC1 (stereo unspecified),–,inactive: 16.6%
COc1cccc(Cn2cc(-c3cccc(C(F)(F)F)c3)nn2)c1,"inconclusive [activator, partial curve]",–
Cc1cccc(COC[C@H](Cc2ccccc2)N2CCN(C(=O)c3cccc(Cl)c3)CCC2=O)c1,active: 17.8 µM,–
O=C(Nc1ccccc1-c1ccccc1)c1cccc([N+](=O)[O-])c1,"inconclusive [activator, partial curve, poor fit]",–
CCOc1ccc(C(=O)/C=C/c2ccc(OC)c(OC)c2)cc1,"inconclusive [activator, partial curve]",–
Cc1cc(C)cc(C(=O)NC(=S)Nc2ccc3c(c2)OCCO3)c1,"inconclusive [activator, single point]",–
CC(C)Oc1cccc(C(=O)NC(=S)Nc2ccccc2)c1,"inconclusive [activator, single point]",–
CCc1cc(SC#N)cc(C)c1N,active: 17.8 µM,–
CC1CCCN(C(=O)c2cc3c(-c4ccc(Cl)cc4)nn(C)c3s2)C1 (stereo unspecified),–,inactive: 4.29%
Cc1nc(N2CCOCC2)c2cc(-c3ccccc3)sc2n1,"inconclusive [activator, single point]",–
CCCc1nc(-c2ccc(-c3ccc(F)cc3)cc2)no1,"inconclusive [activator, single point]",–
COc1cccc(CSc2nnnn2-c2ccc(O)cc2)c1,"inconclusive [activator, single point]",–
Cc1oc2c(C)c3oc(=O)c(CCC(=O)N4CCCCC4)c(C)c3cc2c1C,–,inactive: 2.52%
Cc1cc2oc(C(=O)Nc3ccc(S(=O)(=O)N(C)c4ccccc4)cc3)cc(=O)c2cc1C,–,inactive: 23.1%
COc1ccc(-c2csc(NC(=O)CS(=O)(=O)c3ccccc3)n2)cc1,"inconclusive [activator, single point]",–
COc1ccc(C2=CC(=O)C[C@H](c3ccc(OC)c(OC)c3)C2)cn1,"inconclusive [activator, partial curve]",–
O=C(COc1ccccc1)Nc1nc(-c2cccnc2)cs1,active: 10 µM,–

SMILES,Potency,growth rescue (activation)
COc1cccc(C2CC(c3ccc(Br)cc3)=NN2C(=O)c2ccncc2)c1OC (stereo unspecified),"inconclusive [activator, single point]",–
COc1ccc(OCc2cc(C(=O)NCC3CCCCO3)no2)c(Cl)c1 (stereo unspecified),"inconclusive [activator, single point]",–
COC(=O)c1ccc2c(c1)N(Cc1cc(C)ccc1C)C(=O)c1ccccc1S2(=O)=O,"inconclusive [activator, partial curve]",–
COc1ccccc1N1CCN(C(=O)COc2ccccc2C#N)CC1,"inconclusive [activator, partial curve]",–
O=[N+]([O-])c1ccc(CSc2nnc(-c3cccnc3)o2)cc1,active: 11.2 µM,–
ON=C1c2cc(OCCN3CCCCC3)ccc2-c2ccc(OCCN3CCCCC3)cc21,"inconclusive [activator, partial curve]",–
Cc1nc2c(o1)C(=O)c1ccccc1C2=Nc1ccccc1,–,inconclusive: -89.3% [activator]
O=C(Nc1cc(C(=O)N2CCN(c3ccccc3)CC2)ccc1Cl)c1cccs1,active: 12.6 µM,–
CCc1nnc2c3ccccc3nc(N3CCN(c4cc(Cl)ccc4C)CC3)n12,–,inactive: 4.7%
CCOc1ccc(NC(=O)Cn2c(=O)n(-c3ccccc3)c(=O)c3c4c(sc32)CCCC4)cc1,–,inconclusive: 15.9% [activator]
O=C(Nc1ccc(C(=O)OC2CCCCC2)cc1)c1ccncc1,"inconclusive [activator, partial curve]",–
CCn1ccnc1CNC(=O)c1ccc(OC2CCN(C(=O)COC)CC2)cc1,–,inactive: 0.137%
Nc1ccn([C@@H]2O[C@H](CNCc3cnc(N4CCOCC4)s3)[C@@H](O)[C@H]2O)c(=O)n1,"inconclusive [activator, partial curve]",–
COc1ccc(C(=O)COC(=O)c2sc(C)nc2C)cc1Cl,"inconclusive [activator, single point]",–
COc1ccccc1CNC(=O)COc1ccccc1C,"inconclusive [activator, single point]",–
CCOCCCNC(=S)N1CCN(c2nc(-c3ccc(F)cc3)cs2)CC1,active: 25.1 µM,–
Cc1cc(C)c(NC(=O)C2CCCN(C(=O)c3cnn(-c4ccccc4)c3-n3cccc3)C2)c(C)c1 (stereo unspecified),"inconclusive [activator, partial curve]",–
O=C(Nc1ccc(Cl)cc1)OCCn1nnnc1C(c1ccccc1Cl)N1CCOCC1 (stereo unspecified),"inconclusive [activator, single point]",–
Cc1cccc(N2CCN(C(=O)CCCSc3nc4ccccc4[nH]3)CC2)c1C,"inconclusive [activator, single point]",–
CC(=O)Nc1ccc2nc(SCCOc3ccccc3Cl)sc2c1,"inconclusive [activator, partial curve]",–
Cc1ccc(NC(=O)c2cc(-c3ccc(F)cc3)on2)cc1C,–,inactive: -2.93%
COc1cc2cc(CN(Cc3cccs3)C(=S)Nc3ccccc3)c(=O)[nH]c2cc1OC,"inconclusive [activator, full curve, poor fit]",–
CC(=O)c1ccc(NC(=O)COC(=O)Cc2ccsc2)cc1,"inconclusive [activator, partial curve, poor fit]",–
CCOC(=O)N1C=CC=C[C@@H]2[C@@H](N3C(=O)c4ccccc4C3=O)C(=O)N21,"inconclusive [activator, partial curve]",–

SMILES,Potency,growth rescue (activation)
Cc1cccc(Nc2nc(N3CCCCC3)nc(N3CCCCC3)n2)c1,"inconclusive [activator, single point]",–
C=CCc1cccc2cc(C(=O)O)c(=O)oc12,"inconclusive [activator, partial curve]",–
O=C(Nc1ccc2ncccc2c1)c1cccc(Br)c1,"inconclusive [activator, partial curve]",–
CCOc1cc(C#N)c(NC(=O)c2ccco2)cc1OCC,"inconclusive [activator, single point]",–
CSc1nnc(CSCc2ccc(Cl)cc2Cl)n1-c1ccccc1,"inconclusive [activator, single point]",–
COC(=O)c1c(Oc2ccc(Br)cc2)nnc(-c2ccccc2)c1-c1ccccc1,–,inactive: 1.39%
Cc1ccc2c(c1)CCCN2C(=O)c1ccoc1C,–,inactive: -17.9%
O=C1CC(c2ccc(Br)cc2)c2c(ccc3ccccc23)N1 (stereo unspecified),active: 35.5 µM,–
CCc1nc2nc(C)cc(Nc3ccc(F)c(Cl)c3)n2n1,–,inactive: 24.6%
Cc1ccc2c(CN3CCN(C(=O)c4ccco4)CC3)cc(=O)oc2c1C,"inconclusive [activator, single point]",–
O=C(NNc1nc(=O)c2cccnc2s1)c1ccccc1O,"inconclusive [activator, full curve]",–
CCCCn1c(N)c(N(CC)C(=O)c2cnc(C)cn2)c(=O)[nH]c1=O,"inconclusive [activator, full curve, poor fit]",–
CC(C)c1ccc(C(=O)N2CCCC(c3cc(C(=O)Nc4ccccc4Cl)no3)C2)cc1 (stereo unspecified),–,inactive: -3.06%
COCC(=O)Nc1nc2ccccc2s1,–,inactive: -11.4%
Cc1c(CN2CCCC(C(=O)Nc3cccc(-n4cccn4)c3)C2)cnn1C (stereo unspecified),–,inactive: 8.59%
COc1cccc(C(C)(O)c2nc(-c3ccc4c(c3)OCO4)cs2)c1 (stereo unspecified),"inconclusive [activator, single point]",–
Clc1ccc(CNc2ncnc3onc(-c4ccc(Cl)cc4)c23)cc1,active: 12.6 µM,–
O=C(NCCSc1ccc(Cl)cc1)c1ccco1,active: 7.08 µM,–
Cc1cc2cc3c(cc2nc1SCc1ccccn1)OCCO3,"inconclusive [activator, partial curve, poor fit]",–
COc1ccc2c(c1)CC(C(=O)Nc1cc(OC)c(OC)c(OC)c1)CO2 (stereo unspecified),–,inactive: 0% [at 9.22 µM]
C=CCOC(=O)C1=C[C@H](c2ccc(C(F)(F)F)cc2)[C@@H](CCCO)[C@H](OCC)O1,"inconclusive [activator, partial curve]",–
Cc1ccc(S(=O)(=O)N(C)c2ccc(OCC(=O)OCc3cccc(Br)c3)cc2)cc1,–,inactive: 15.5%
Cc1ccc(N(CC(=O)N2CCN(c3cccc(C)c3C)CC2)S(=O)(=O)c2c(C)nn(C)c2C)cc1,"inconclusive [activator, partial curve]",–
